The supplement of paper PMC8728848
The list shows a part of the results.

How the values were obtained:
Experiment in all cases: glycan array binding signal (z-score within array); higher = stronger binding
Details in all cases: glycan notation: IUPAC condensed, linker removed
[1] = biological target: Gal(b1-4)GlcNAc(b1-2)[Gal(b1-4)GlcNAc(b1-6)]Man(a1-6)[Gal(b1-4)GlcNAc(b1-2)Man(a1-3)]Man(b1-4)GlcNAc(b1-4)[Fuc(a1-6)]GlcNAc
Outline: (§1)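 Arrays were curated from the Consortium for Functional Glycomics database, 3228 in total, and kept only where the protein sequence was available. Binding is expressed as a within-array Z-score. This score was averaged across arrays of the same protein sequence at different concentrations or buffers and across linkers, and negative values can be read as non-binding.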

[2] = biological target: Gal(b1-4)GlcNAc(b1-2)[Gal(b1-4)GlcNAc(b1-6)]Man(a1-6)[GlcNAc(b1-4)][Gal(b1-4)GlcNAc(b1-2)Man(a1-3)]Man(b1-4)GlcNAc(b1-4)GlcNAc
Outline: as §1

[3] = biological target: Gal(b1-4)GlcNAc(b1-2)[Gal(b1-4)GlcNAc(b1-6)]Man(a1-6)[GlcNAc(b1-4)][Gal(b1-4)GlcNAc(b1-2)[Gal(b1-4)GlcNAc(b1-4)]Man(a1-3)]Man(b1-4)GlcNAc(b1-4)[Fuc(a1-6)]GlcNAc
Outline: as §1

[4] = biological target: Gal(b1-4)GlcNAc(b1-3)Gal(b1-3)GalNAc
Outline: as §1

[5] = biological target: Gal(b1-4)GlcNAc(b1-3)Gal(b1-3)GlcNAc
Outline: as §1

[6] = biological target: Gal(b1-4)GlcNAc(b1-3)Gal(b1-4)Glc
Outline: as §1

[7] = biological target: Gal(b1-4)GlcNAc(b1-3)Gal(b1-4)GlcNAc
Outline: as §1

[8] = biological target: Gal(b1-4)GlcNAc(b1-3)Gal(b1-4)GlcNAc(b1-2)Man(a1-3)[Gal(b1-4)GlcNAc(b1-3)Gal(b1-4)GlcNAc(b1-2)Man(a1-6)]Man(b1-4)GlcNAc(b1-4)GlcNAc
Outline: as §1

[9] = biological target: Gal(b1-4)GlcNAc(b1-3)Gal(b1-4)GlcNAc(b1-2)Man(a1-3)[Gal(b1-4)GlcNAc(b1-3)Gal(b1-4)GlcNAc(b1-2)Man(a1-6)]Man(b1-4)GlcNAc(b1-4)[Fuc(a1-6)]GlcNAc
Outline: as §1

[10] = biological target: Gal(b1-4)GlcNAc(b1-3)Gal(b1-4)GlcNAc(b1-2)[Gal(b1-4)GlcNAc(b1-3)Gal(b1-4)GlcNAc(b1-6)]Man(a1-6)[Gal(b1-4)GlcNAc(b1-3)Gal(b1-4)GlcNAc(b1-2)Man(a1-3)]Man(b1-4)GlcNAc(b1-4)GlcNAc
Outline: as §1

[11] = biological target: Gal(b1-4)GlcNAc(b1-3)Gal(b1-4)GlcNAc(b1-2)[Gal(b1-4)GlcNAc(b1-3)Gal(b1-4)GlcNAc(b1-6)]Man(a1-6)[Gal(b1-4)GlcNAc(b1-3)Gal(b1-4)GlcNAc(b1-2)Man(a1-3)]Man(b1-4)GlcNAc(b1-4)[Fuc(a1-6)]GlcNAc
Outline: as §1

[12] = biological target: Gal(b1-4)GlcNAc(b1-3)Gal(b1-4)GlcNAc(b1-3)Gal(b1-4)GlcNAc
Outline: as §1

[13] = biological target: Gal(b1-4)GlcNAc(b1-3)Gal(b1-4)GlcNAc(b1-3)Gal(b1-4)GlcNAc(b1-2)Man(a1-3)[Gal(b1-4)GlcNAc(b1-3)Gal(b1-4)GlcNAc(b1-3)Gal(b1-4)GlcNAc(b1-2)Man(a1-6)]Man(b1-4)GlcNAc(b1-4)GlcNAc
Outline: as §1

[14] = biological target: Gal(b1-4)GlcNAc(b1-3)Gal(b1-4)GlcNAc(b1-3)Gal(b1-4)GlcNAc(b1-2)Man(a1-3)[Gal(b1-4)GlcNAc(b1-3)Gal(b1-4)GlcNAc(b1-3)Gal(b1-4)GlcNAc(b1-2)Man(a1-6)]Man(b1-4)GlcNAc(b1-4)[Fuc(a1-6)]GlcNAc
Outline: as §1

[15] = biological target: Gal(b1-4)GlcNAc(b1-3)Gal(b1-4)GlcNAc(b1-3)Gal(b1-4)GlcNAc(b1-2)[Gal(b1-4)GlcNAc(b1-3)Gal(b1-4)GlcNAc(b1-3)Gal(b1-4)GlcNAc(b1-6)]Man(a1-6)[Gal(b1-4)GlcNAc(b1-3)Gal(b1-4)GlcNAc(b1-3)Gal(b1-4)GlcNAc(b1-2)Man(a1-3)]Man(b1-4)GlcNAc(b1-4)[Fuc(a1-6)]GlcNAc
Outline: as §1

[16] = biological target: Gal(b1-4)GlcNAc(b1-3)Gal(b1-4)GlcNAc(b1-3)Gal(b1-4)GlcNAc(b1-3)Gal(b1-4)GlcNAc(b1-2)Man(a1-3)[Gal(b1-4)GlcNAc(b1-3)Gal(b1-4)GlcNAc(b1-3)Gal(b1-4)GlcNAc(b1-3)Gal(b1-4)GlcNAc(b1-2)Man(a1-6)]Man(b1-4)GlcNAc(b1-4)GlcNAc
Outline: as §1

[17] = biological target: Gal(b1-4)GlcNAc(b1-3)Gal(b1-4)GlcNAc(b1-3)Gal(b1-4)GlcNAc(b1-3)Gal(b1-4)GlcNAc(b1-2)Man(a1-3)[Gal(b1-4)GlcNAc(b1-3)Gal(b1-4)GlcNAc(b1-3)Gal(b1-4)GlcNAc(b1-3)Gal(b1-4)GlcNAc(b1-2)Man(a1-6)]Man(b1-4)GlcNAc(b1-4)[Fuc(a1-6)]GlcNAc
Outline: as §1

[18] = biological target: Gal(b1-4)GlcNAc(b1-3)Gal(b1-4)GlcNAc(b1-3)Gal(b1-4)GlcNAc(b1-3)Gal(b1-4)GlcNAc(b1-2)[Gal(b1-4)GlcNAc(b1-3)Gal(b1-4)GlcNAc(b1-3)Gal(b1-4)GlcNAc(b1-3)Gal(b1-4)GlcNAc(b1-6)]Man(a1-6)[Gal(b1-4)GlcNAc(b1-3)Gal(b1-4)GlcNAc(b1-3)Gal(b1-4)GlcNAc(b1-3)Gal(b1-4)GlcNAc(b1-2)Man(a1-3)]Man(b1-4)GlcNAc(b1-4)[Fuc(a1-6)]GlcNAc
Outline: as §1

[19] = biological target: Gal(b1-4)GlcNAc(b1-3)Gal(b1-4)GlcNAc(b1-3)Gal(b1-4)GlcNAc(b1-3)Gal(b1-4)GlcNAc(b1-3)Gal(b1-4)GlcNAc(b1-2)Man(a1-3)[Gal(b1-4)GlcNAc(b1-3)Gal(b1-4)GlcNAc(b1-3)Gal(b1-4)GlcNAc(b1-3)Gal(b1-4)GlcNAc(b1-3)Gal(b1-4)GlcNAc(b1-2)Man(a1-6)]Man(b1-4)GlcNAc(b1-4)GlcNAc
Outline: as §1

[20] = biological target: Gal(b1-4)GlcNAc(b1-3)Gal(b1-4)GlcNAc(b1-3)Gal(b1-4)GlcNAc(b1-3)Gal(b1-4)GlcNAc(b1-3)Gal(b1-4)GlcNAc(b1-2)Man(a1-3)[Gal(b1-4)GlcNAc(b1-3)Gal(b1-4)GlcNAc(b1-3)Gal(b1-4)GlcNAc(b1-3)Gal(b1-4)GlcNAc(b1-3)Gal(b1-4)GlcNAc(b1-2)Man(a1-6)]Man(b1-4)GlcNAc(b1-4)[Fuc(a1-6)]GlcNAc
Outline: as §1

[21] = biological target: Gal(b1-4)GlcNAc(b1-3)Gal(b1-4)GlcNAc(b1-3)Gal(b1-4)GlcNAc(b1-3)Gal(b1-4)GlcNAc(b1-3)Gal(b1-4)GlcNAc(b1-2)[Gal(b1-4)GlcNAc(b1-3)Gal(b1-4)GlcNAc(b1-3)Gal(b1-4)GlcNAc(b1-3)Gal(b1-4)GlcNAc(b1-3)Gal(b1-4)GlcNAc(b1-6)]Man(a1-6)[Gal(b1-4)GlcNAc(b1-3)Gal(b1-4)GlcNAc(b1-3)Gal(b1-4)GlcNAc(b1-3)Gal(b1-4)GlcNAc(b1-3)Gal(b1-4)GlcNAc(b1-2)Man(a1-3)]Man(b1-4)GlcNAc(b1-4)[Fuc(a1-6)]GlcNAc
Outline: as §1

[22] = biological target: Gal(b1-4)GlcNAc(b1-3)Gal(b1-4)GlcNAc(b1-3)Gal(b1-4)GlcNAc(b1-3)Gal(b1-4)GlcNAc(b1-3)Gal(b1-4)GlcNAc(b1-3)Gal(b1-4)GlcNAc(b1-2)Man(a1-3)[Gal(b1-4)GlcNAc(b1-3)Gal(b1-4)GlcNAc(b1-3)Gal(b1-4)GlcNAc(b1-3)Gal(b1-4)GlcNAc(b1-3)Gal(b1-4)GlcNAc(b1-3)Gal(b1-4)GlcNAc(b1-2)Man(a1-6)]Man(b1-4)GlcNAc(b1-4)GlcNAc
Outline: as §1

B1: EEA (Euonymus europaeus) (protein)
chain: MASTIIATGPTYRVYCRAAPNYNMIVGKGVAFLAPIDETNELQYWYKDDTYSYIKDEAGLPAFSLVNKATGLTLKHSNHHPVPVKLVTYNPNVVDESVLWSQADDRGDGYSAIRSLTNPASHLEAAPLNDWSYNGAIIMGGVWIDAYNQQWKIEPHTG
With B1 as the binder, how does the “glycan array binding signal (z-score)” value [1] read?
The value was -0.193.

And the “glycan array binding signal (z-score)” value [2]?
Its value is -0.201.

What about the “glycan array binding signal (z-score)” value [3] of the same binder?
Its value is -0.223.

What about the “glycan array binding signal (z-score)” value [4] of the same binder?
The value was -0.23.

And the “glycan array binding signal (z-score)” value [5]?
Its value is -0.101.

What about the “glycan array binding signal (z-score)” value [6] of the same binder?
Its value is -0.156.

And the “glycan array binding signal (z-score)” value [7]?
The value was -0.208.

What about the “glycan array binding signal (z-score)” value [8] of the same binder?
The value was 0.279.

And the “glycan array binding signal (z-score)” value [9]?
Its value is 0.008.

What about the “glycan array binding signal (z-score)” value [10] of the same binder?
The value was -0.101.

What about the “glycan array binding signal (z-score)” value [11] of the same binder?
Its value is -0.09.

And the “glycan array binding signal (z-score)” value [12]?
The value was -0.241.

And the “glycan array binding signal (z-score)” value [13]?
Its value is 0.918.

What about the “glycan array binding signal (z-score)” value [14] of the same binder?
Its value is -0.144.

And the “glycan array binding signal (z-score)” value [15]?
The value was -0.029.

What about the “glycan array binding signal (z-score)” value [16] of the same binder?
Its value is -0.112.

What about the “glycan array binding signal (z-score)” value [17] of the same binder?
The value was 0.066.

And the “glycan array binding signal (z-score)” value [18]?
The value was -0.077.

And the “glycan array binding signal (z-score)” value [19]?
Its value is -0.222.

What about the “glycan array binding signal (z-score)” value [20] of the same binder?
Its value is -0.141.

And the “glycan array binding signal (z-score)” value [21]?
Its value is 0.147.

And the “glycan array binding signal (z-score)” value [22]?
The value was -0.159.
